Laboratory results reported in the supplement of paper PMC3334620.
Over roughly 33,000 sequences, “E-score (-0.5 to 0.5)” has its median near -0.016; the highest 2% begin near 0.32. The list shows a part of the results.

These sequences were tested against T1, Stp1 (UniProt B3LFK1) (assay: PBM E-score (8-mer binding enrichment) (E-score (-0.5 to 0.5)); higher = stronger / more preferred TF binding; most listed sequences are background and not binding sites). Conditions: protein concentration: 200 nM; construct: GST-full length.
T1 sequence: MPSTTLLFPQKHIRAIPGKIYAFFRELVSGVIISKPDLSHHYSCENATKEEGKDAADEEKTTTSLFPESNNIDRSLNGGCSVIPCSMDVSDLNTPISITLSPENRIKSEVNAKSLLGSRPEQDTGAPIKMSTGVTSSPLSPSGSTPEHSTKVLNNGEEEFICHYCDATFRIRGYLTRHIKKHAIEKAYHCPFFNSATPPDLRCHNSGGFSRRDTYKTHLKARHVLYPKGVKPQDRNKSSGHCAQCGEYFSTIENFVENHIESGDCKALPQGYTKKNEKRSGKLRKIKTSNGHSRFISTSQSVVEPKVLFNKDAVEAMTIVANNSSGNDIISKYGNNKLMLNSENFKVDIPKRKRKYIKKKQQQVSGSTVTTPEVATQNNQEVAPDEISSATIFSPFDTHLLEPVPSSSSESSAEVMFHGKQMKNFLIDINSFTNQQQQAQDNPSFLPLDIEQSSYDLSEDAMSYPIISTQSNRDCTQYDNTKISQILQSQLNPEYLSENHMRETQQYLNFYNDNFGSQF
How it was run: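 The E-score, a modified Wilcoxon-Mann-Whitney statistic, was computed by the Universal PBM Analysis Suite for every ungapped eight-base word pooled with its reverse complement. Scans behind it were normalised with masliner after bound GST-tagged yeast transcription factors were detected with fluorescent anti-GST. The proteins, at about 100-200 nM, had been applied to universal all-10-mer Agilent arrays made double-stranded by primer extension.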

| Sequence | PBM E-score |
| --- | --- |
| GGAACACC | -0.251 |
| AGAACTAA | 0.0762 |
| GACCCTCC | -0.25 |
| TCAACGCA | 0.082 |
| ATCGACGG | 0.199 |
| CTTCCCAC | -0.0242 |
| GCAACCAA | 0.0778 |
| ATCGGCTG | -0.0281 |
| AACGCAGA | -0.134 |
| CGTGGACC | 0.0121 |
| AGTTTTTC | 0.0118 |
| AGAGATAA | 0.0526 |
| CACACACG | 0.267 |
| CGTTGCCA | 0.0776 |
| ATCGATTC | -0.0295 |
| GGGCTGAA | 0.00916 |
| GGCACATA | 0.283 |
| AGAAGGGC | -0.0338 |
| ATCAGGGG | -0.332 |
| GCGCAATA | 0.0277 |
| GGAGGCAA | -0.088 |
| CAGCGAAC | 0.0269 |
| AGGTCGAG | -0.125 |
| GTGTCCCA | -0.095 |
| CACCACAA | 0.113 |

| Sequence | PBM E-score |
| --- | --- |
| CCGCTAGG | 0.0475 |
| GTATGCTA | -0.00287 |
| ACGTCGCA | -0.101 |
| ACTGGGCA | -0.0918 |
| CGGGCACG | 0.139 |
| AACCTTCT | -0.263 |
| GTAATATA | 0.274 |
| CCATCAGG | -0.34 |
| ATATAAGG | 0.182 |
| TATCACGA | 0.0205 |
| GTAAGAAC | 0.0975 |
| CTCGTAAC | 0.0966 |
| AATTTCAA | -0.0992 |
| ACAAACCT | -0.103 |
| CCCTTGCC | -0.105 |
| CGTCTTTA | 0.112 |
| GCGACACC | -0.0715 |
| GATTTTGC | 0.0476 |
| CCACCGGC | -0.0392 |
| ACCCCTTC | -0.267 |
| CATCGCCG | 0.375 |
| ATCGGGTC | -0.0516 |
| CAGCACTC | -0.019 |
| CCGGGAAC | -0.0364 |
| ATTCTTAA | -0.0515 |

| Sequence | PBM E-score |
| --- | --- |
| GCTATCCA | -0.0017 |
| GCGGCAAC | 0.384 |
| ACATGCGA | 0.0193 |
| ACTGATCT | 0.0738 |
| GAGGACAC | -0.0359 |
| ACCTCCAC | -0.239 |
| ATGTGGTA | 0.0598 |
| CGTTAGAG | -0.063 |
| GCGAGAGA | -0.147 |
| GCCATACC | -0.0417 |
| CGGACTAG | -0.111 |
| CCCTTTTA | -0.298 |
| GAGTTATA | 0.0546 |
| AGGATAGG | -0.0758 |
| GGCGAGGA | -0.165 |
| TCGTCAGA | -0.0604 |
| GGTAATCA | 0.0354 |
| TAAAAGGA | 0.00436 |
| CTTGCGTC | -0.128 |
| CCGACTCC | -0.206 |
| ACAATTGG | -0.0534 |
| GAGCTTGC | -0.189 |
| AACATTTC | -0.046 |
| AGAGAGAC | -0.302 |
| GCGAATTA | 0.229 |

| Sequence | PBM E-score |
| --- | --- |
| GACGTGGA | -0.127 |
| AAGTAGCC | -0.0248 |
| ATCCGGCG | 0.0798 |
| ATACGGAT | 0.262 |
| ACAGCGCA | -0.141 |
| CCTCCTTC | -0.168 |
| AAAGAAGC | -0.0111 |
| CCAAGCGC | -0.0355 |
| ATGTGAAT | -0.0139 |
| AAATCCAT | 0.119 |
| AGCTACAG | -0.325 |
| AGTTTACA | 0.0264 |
| ATTAGCAC | -0.11 |
| GGACTGCC | 0.0385 |
| TCGCGGAA | -0.0668 |
| GAATCTGC | -0.0926 |
| GGACTATA | -0.00864 |
| CGAATTGC | 0.00225 |
| AGGTACCG | 0.104 |
| GAGCCGCA | 0.448 |
| CTACCCCC | -0.451 |
| CCGACCGA | 0.0122 |
| CAAGGAGG | -0.108 |
| CTGTCTTA | 0.0291 |
| AGACACGG | 0.363 |

| Sequence | PBM E-score |
| --- | --- |
| ATGCCCCA | -0.0992 |
| CGACTAGC | -0.13 |
| TCGGGAGA | -0.257 |
| AGAATCCG | 0.132 |
| AATCTTCT | 0.0359 |
| AACATCTG | 0.058 |
| CTGTGACA | -0.12 |
| ATAGACGC | 0.15 |
| ATCAGGAA | 0.202 |
| CCGCTGCA | 0.0284 |
| AACAGAGC | 0.00906 |
| CTGCGAAG | -0.175 |
| GGCACCCC | 0.178 |
| AGCCGAGA | -0.143 |
| CGCGCAAG | 0.16 |
| TCCTCAGA | -0.178 |
| CGAGCCAC | -0.101 |
| CTAAGTTA | 0.11 |
| AAGATCAT | -0.069 |
| CCTCTGAC | -0.0386 |
| CAACAACC | -0.171 |
| ACGGTGTG | -0.0551 |
| ACCCACAT | -0.137 |
| CCGAATAA | 0.163 |
| CCACAAAG | 0.169 |

| Sequence | PBM E-score |
| --- | --- |
| GTACGCTA | -0.00166 |
| ACAGAAGA | 0.125 |
| ACATTTTG | 0.131 |
| GACTAGCC | -0.194 |
| TTAGTAAA | 0.257 |
| ACCGCGAG | -0.0635 |
| CGGCCCAA | 0.247 |
| CGGAACCA | 0.0682 |
| ATTGATGA | 0.0332 |
| ACGATGGA | 0.0174 |
| AGGGGATG | -0.228 |
| AAGTAGGC | -0.0994 |
| AGATGCCG | 0.397 |
| CGGATATC | 0.0645 |
| ATAGTCGA | 0.00569 |
| ACACTAGA | 0.0321 |
| AGCATAGG | -0.253 |
| CATCTTAC | -0.0405 |
| ACAACTAT | 0.0651 |
| CCCATGCA | -0.116 |
| TCTATAAA | 0.00205 |
| AAGCTAGG | -0.167 |
| CCCCAGTC | -0.324 |
| CAGCAATA | 0.182 |
| GCTATAGC | -0.278 |

| Sequence | PBM E-score |
| --- | --- |
| CCAATATA | -0.179 |
| CATTCCGG | -0.147 |
| CAGGCCCC | -0.357 |
| GCCATTAC | 0.0149 |
| ATCAAGAT | 0.0599 |
| GGCCGATA | 0.0187 |
| AGGGCTTC | 0.0634 |
| TACTTTAA | 0.175 |
| ACAAGGGG | -0.344 |
| ACCTATCG | 0.0549 |
| TTCACGAA | -0.0541 |
| ATGGCTTA | -0.0579 |
| CGTCTTGC | -0.0431 |
| GATTTAAA | 0.0612 |
| ACCACCAT | -0.0512 |
| AATAAGCT | 0.166 |
| GCTTGTTA | -0.00813 |
| GCCCTTTA | 0.104 |
| CGAGCGCA | 0.027 |
| CAACTACC | -0.149 |
| ACTTAAAC | -0.023 |
| TAGACGCA | -0.156 |
